Measurements reported in the supplement of paper PMC3334620.
Whole data set: some 33,000 sequences, median “E-score (-0.5 to 0.5)” near -0.041, cut for the highest 2% near 0.37. This is one part of the list.

Target: T1, Ecm22 (UniProt Q05958)
T1 sequence: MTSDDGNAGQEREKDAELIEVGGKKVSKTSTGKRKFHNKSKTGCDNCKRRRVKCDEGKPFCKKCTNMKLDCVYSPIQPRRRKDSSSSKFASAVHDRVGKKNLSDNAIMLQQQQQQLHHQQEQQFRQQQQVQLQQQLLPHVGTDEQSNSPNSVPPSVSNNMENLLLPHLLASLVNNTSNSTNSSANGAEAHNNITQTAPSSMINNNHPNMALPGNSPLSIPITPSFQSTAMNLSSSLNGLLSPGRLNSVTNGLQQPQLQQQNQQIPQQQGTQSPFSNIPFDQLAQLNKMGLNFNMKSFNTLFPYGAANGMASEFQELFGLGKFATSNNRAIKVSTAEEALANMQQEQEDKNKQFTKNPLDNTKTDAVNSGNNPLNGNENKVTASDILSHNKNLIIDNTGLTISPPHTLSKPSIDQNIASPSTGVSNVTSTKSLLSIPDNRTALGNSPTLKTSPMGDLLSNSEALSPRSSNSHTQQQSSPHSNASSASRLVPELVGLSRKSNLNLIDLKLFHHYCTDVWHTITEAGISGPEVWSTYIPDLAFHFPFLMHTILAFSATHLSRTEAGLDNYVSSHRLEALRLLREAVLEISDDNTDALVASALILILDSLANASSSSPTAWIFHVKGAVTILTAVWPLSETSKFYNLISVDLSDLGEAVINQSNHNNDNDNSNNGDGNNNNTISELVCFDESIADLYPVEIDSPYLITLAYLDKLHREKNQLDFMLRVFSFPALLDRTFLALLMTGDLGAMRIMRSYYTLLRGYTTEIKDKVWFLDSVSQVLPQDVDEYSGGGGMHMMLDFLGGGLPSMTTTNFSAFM
Assay: PBM E-score (8-mer binding enrichment) (E-score (-0.5 to 0.5)); higher = stronger / more preferred TF binding; most listed sequences are background and not binding sites
Settings: protein concentration: 200 nM; construct: GST-full length
Outline: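 Universal all-10-mer Agilent arrays, double-stranded by primer extension on fresh or once-stripped slides, were probed with about 100-200 nM GST-tagged yeast transcription factors made by PURExpress. Fluorescent anti-GST detected bound protein, and masliner normalised the scans. E-scores from the Universal PBM Analysis Suite were given to each ungapped eight-base word pooled with its reverse complement.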

Sequence	PBM E-score
AGGCTCTA	-0.167
ACTCTTGG	-0.0829
CTCCGACA	-0.0109
TCAAGAGA	-0.0131
ATCGCTCC	0.185
CACTACCC	-0.281
ACGACATC	0.355
ACTGGCGA	-0.125
AATGGAAG	-0.052
CTGCCGAA	0.0241
CCTGGAAG	-0.318
ACACCGAG	0.0852
CAGGATCG	0.17
AAAGAGAG	-0.123
ACTAGCGC	-0.12
CCCGGAAA	-0.056
ACTAATCA	0.0133
CAATTTCG	0.0809
GCGCGCAA	0.122
ACAAGGAA	0.126
CTACTATA	0.0369
AAGTTGGT	0.0141
ACAATCCC	-0.0294
CAAGTGTA	-0.183
CTATGTGC	-0.144

Sequence	PBM E-score
AGTCGTGA	0.0257
CGGGCGAC	-0.183
AGCATGCG	-0.00866
CCGGTCTC	-0.113
ACTAGAGA	-0.157
AGTACTCA	-0.122
GTACCGGA	0.265
CCGGGATA	0.123
CGCCGTCC	-0.0471
GGGGGTTA	-0.298
GACCATAC	0.0838
GGCGACCC	-0.138
CGTATTGC	0.181
ACGTTGGC	-0.113
GGGGTTAC	0.0772
CTTGGACC	-0.134
AGCAGAAC	0.177
CGGGAATA	0.0624
ACCTTCCC	-0.107
CTAGCACC	-0.156
GACTGGTA	0.0633
AGCACTTG	-0.0389
AAACGCAG	0.208
AAGTTCAG	-0.0681
CGCTGACC	-0.0863

Sequence	PBM E-score
AGTTAAGA	-0.182
AGTAGTAG	0.0183
CCTTACAA	-0.151
AATATACT	-0.0273
ACTTGCCC	-0.208
GCTCAGCC	-0.16
GGGACCAA	-0.0638
AAGGATTC	-0.311
CAAACTAA	0.122
CGATCCCG	0.0527
TATGGTGA	-0.044
CTCCGCCA	-0.248
GAGGGGCC	-0.0781
ATAAGCTC	0.0611
CGAAACCC	0.0514
ACACGCTG	-0.159
CATAGTTA	0.0166
ACTTCGCT	0.185
AGCGTGGC	-0.0861
CTGTCGGC	0.0934
GATTTGAC	0.202
CCAGCTGC	-0.292
AATCTATG	0.183
GAGGACAA	-0.0803
ATAGCCCA	-0.264

Sequence	PBM E-score
CCCTGACA	-0.298
CCCCGCGA	0.0886
CGGAGGTC	0.0662
CAATTTGA	-0.0301
TACAACGA	0.245
AATACTTG	-0.118
CACGCAGC	-0.0661
ATAGATCG	0.0896
AGTACGTC	0.0542
CAAGTTAG	-0.183
CTCTAAAA	-0.215
GCAGCTAC	7e-05
AAGATTTA	-0.00972
CCCATGCG	-0.11
TATATCAA	0.0243
CGCCTAAA	-0.0216
AGGTCAGC	0.16
AGTGACCC	-0.138
ATTGATCA	-0.14
AATATCGC	0.0495
CGCGATTA	0.0714
CCCAAACA	0.00398
GAGTTTCA	-0.116
CCGTTGTA	0.0903
GCGTGTAC	0.224

Sequence	PBM E-score
CCACGCGC	-0.163
GATTTCGC	0.273
CGCCAACC	-0.141
GGTAGAAA	-0.0913
GCATCTCC	-0.263
AGCGAAAC	0.314
ACACTCTC	-0.0702
CTTTTTCC	-0.068
CCGCCACA	-0.107
AGATATAT	-0.0126
AACAACCT	-0.112
AGGGTATC	0.0248
AACACGTC	-0.0705
AAACAACG	0.173
AGGCCTTG	-0.189
GAGGTCGA	-0.0264
GTGGATAA	-0.0635
AGAAGCCT	-0.149
CGGTAGAG	-0.127
CGGCCCGC	-0.146
AGGCTGGC	-0.267
AGTCCATG	-0.242
GCTGATCC	-0.155
ACCTGAAC	-0.123
AAAATATC	0.0138

Sequence	PBM E-score
AGAATAAC	-0.105
CGGTACAA	0.214
AAGATGGG	-0.183
CGTTCTAA	0.256
GCCGTCGA	-0.125
TCACCCAA	0.0174
CAACCACC	-0.177
ATGGAGGG	-0.294
ATTGCCGC	-0.111
GGCTCCCA	-0.359
ACACTTAT	0.0913
CACTTCAG	-0.242
AATCCTCT	-0.249
ACCGTACT	0.285
ACCGTTGA	0.0678
CTGACCCC	-0.149
AACACAGC	0.167
CGGCTTGC	-0.0173
CCACTCCC	-0.00522
ATCTATAC	0.237
CATATCGA	-0.0294
CAGGCGGC	-0.114
GGTTGGGA	-0.0974
CTCAACAC	0.0118
ACTTGTGA	-0.174

Sequence	PBM E-score
AAGGTATG	-0.0619
ATTCGAGA	0.00532
CTCCCGCA	0.0888
GACATCAA	-0.0459
GGTAGTAC	0.1
ACCCACCC	-0.148
TGAAAACA	-0.105
AGAAAGCA	0.0204
AACACAAG	-0.179
GCCCGAAC	0.107
ACTCCGTC	0.106
CCTCAACC	-0.0769
AGCTAGCC	-0.164
AAGTGGGA	-0.0267
CTCTCGGC	-0.117
GGAAGGAA	-0.023
AGTCCCTC	-0.191
AAGCCTGA	-0.248
GTACTAGA	0.148
CGCGGTCA	-0.126
ACTTACAG	-0.00651
ACATCGGG	-0.0909
